# Assay results as given in PMC4336329 (PLoS ONE, 2015).
# In all, about 310,000 compounds went through this assay and about 14,000 (4.5%) showed an effect of 50% or more. The effect is printed as a negative number. The list shows a part of the results.
# Target: human ether-à-go-go-related gene (hERG) potassium channel (human, UniProt Q12809)
# Experiment: primary screen, population patch clamp on CHO cells stably expressing hERG
# 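Note: peak tail current of the secondary pulse compared with the same well before compound.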
# Chain of human ether-à-go-go-related gene (hERG) potassium channel (Q12809 whole entry, looked up): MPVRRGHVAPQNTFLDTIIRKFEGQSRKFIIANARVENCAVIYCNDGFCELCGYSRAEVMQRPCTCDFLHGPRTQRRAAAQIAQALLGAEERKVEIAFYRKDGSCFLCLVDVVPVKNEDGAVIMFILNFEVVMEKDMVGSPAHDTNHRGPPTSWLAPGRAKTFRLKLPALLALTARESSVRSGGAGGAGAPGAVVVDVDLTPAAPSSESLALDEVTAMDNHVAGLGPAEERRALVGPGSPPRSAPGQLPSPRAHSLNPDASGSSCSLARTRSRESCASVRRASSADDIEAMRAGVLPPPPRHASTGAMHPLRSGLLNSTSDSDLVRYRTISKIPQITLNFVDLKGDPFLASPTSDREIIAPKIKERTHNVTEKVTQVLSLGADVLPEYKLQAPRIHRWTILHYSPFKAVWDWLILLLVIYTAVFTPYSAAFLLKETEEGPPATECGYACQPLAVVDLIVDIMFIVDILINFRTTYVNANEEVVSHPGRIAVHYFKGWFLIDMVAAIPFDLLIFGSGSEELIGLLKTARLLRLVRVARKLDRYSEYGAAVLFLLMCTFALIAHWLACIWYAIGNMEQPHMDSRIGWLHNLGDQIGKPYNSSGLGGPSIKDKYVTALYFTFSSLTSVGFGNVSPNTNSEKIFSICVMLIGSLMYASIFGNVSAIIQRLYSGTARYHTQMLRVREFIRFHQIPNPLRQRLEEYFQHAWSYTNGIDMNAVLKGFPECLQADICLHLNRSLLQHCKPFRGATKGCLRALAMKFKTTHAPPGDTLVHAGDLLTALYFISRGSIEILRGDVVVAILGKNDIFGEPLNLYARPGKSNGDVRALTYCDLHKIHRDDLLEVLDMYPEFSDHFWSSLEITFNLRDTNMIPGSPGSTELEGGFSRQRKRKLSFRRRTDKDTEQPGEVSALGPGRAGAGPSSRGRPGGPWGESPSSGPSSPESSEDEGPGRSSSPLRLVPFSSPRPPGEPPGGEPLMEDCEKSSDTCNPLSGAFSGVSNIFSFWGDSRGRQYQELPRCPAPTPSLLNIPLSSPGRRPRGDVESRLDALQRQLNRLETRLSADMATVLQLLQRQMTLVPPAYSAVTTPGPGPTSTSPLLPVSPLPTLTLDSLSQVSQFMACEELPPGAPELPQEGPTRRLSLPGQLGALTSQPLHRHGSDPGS
row,Structure (SMILES),"hERG current change (%, negative = inhibition) at 10uM [%]"
1,Cc1ccc(NC(=O)CCC(=O)NNC(=O)COc2ccc([N+](=O)[O-])cc2)c(C)c1,10.1
2,O=C1C2C(C(=O)N1c1ccc3c(c1)OCO3)C1C=CC2C12CC2 (stereo not drawn),-3.37
3,Cl.O=C(c1ccco1)N(CCCN1CCOCC1)c1nc(-c2ccc(F)cc2)cs1,-29.4
4,COc1ccc(-c2cnc3c(-c4ccc(F)cc4)cnn3c2N)cc1,23
5,O=C(c1cccs1)N1CCN(c2ncc(Br)cn2)CC1,-15
6,CCCN1Cc2cccc(C(=O)NCc3ccc4c(c3)OCO4)c2C1=O,3.73
7,N#CCCCSc1nnc(CSc2nc3ccccc3s2)n1-c1ccccc1,-48.5
8,CCOc1ccc(S(=O)(=O)N(C)c2ccc(OCC(=O)Nc3nccs3)cc2)cc1,10.1
9,CCOC(=O)c1c(S(=O)(=O)NCCc2ccccc2)c(C)n(C)c1C,-20.9
10,Cn1c(/C=C/c2ccc(Br)cc2)nc2ccccc2c1=O,14.2
11,CCOC(=O)CCNCc1ccc(F)cc1.Cl,-0.51
12,Fc1ccc(N2CCN(c3ncnc4c3nnn4Cc3ccccc3Cl)CC2)cc1,16.8
13,Cc1ccccc1OC1CCN(C(=O)c2cc(COc3ccccc3)on2)CC1,-0.372
14,CCOCCOC(=O)c1ccc(NC(=O)C2COc3ccccc3O2)cc1 (stereo not drawn),-33.1
15,O=C(CCCSc1nc2sc3c(c2c(=O)[nH]1)CCC3)NCCO,14.9
16,O=C(Nc1ccc(O)cc1)c1ccc(NC(=O)C2CCCO2)cc1 (stereo not drawn),18.9
17,Cc1ccc(C)c(NC(=O)CCN2CCN(CCO)CC2)c1.Cl,4.08
18,CCN(CC)c1ccc(CN(C)CCc2ccc(OC)c(OC)c2)cc1,-66.1
19,COc1ccc(-c2cnn3c(N)c(S(=O)(=O)c4ccccc4)cnc23)cc1,6.68
20,COc1ccc(C2CC(=O)C(CS(=O)(=O)c3ccccc3)C(=O)C2)cc1 (stereo not drawn),39
21,COc1ccc(CC(=O)N2CCN(S(=O)(=O)c3cc(Cl)ccc3Cl)CC2)cc1,-23.7
22,CCc1ccc2oc(-c3ccc(OC)cc3)cc(=[NH+]c3cccc(C(=O)O)c3)c2c1.F[B-](F)(F)F,5

row,Structure (SMILES),"hERG current change (%, negative = inhibition) at 10uM [%]"
1,CCNS(=O)(=O)c1ccc(NC(=O)c2c(-c3ccccc3)noc2C)cc1,7.28
2,Cc1ccccc1-c1cc(C(=O)NCc2ccco2)n(CC2CC(c3cccnc3)=NO2)n1 (stereo not drawn),-15.6
3,CCCCCCc1ccc(N2C[C@H](Cc3ccccc3)[C@@H](CC(=O)Nc3ccccc3)C2=O)cc1,4.26
4,O=C(c1cccn2c(=O)c3cc(Br)ccc3nc12)N1CCN(c2ccccn2)CC1,-33.6
5,CCOC(=O)N1CCN(c2ccc(S(=O)(=O)N3CCOCC3)cc2[N+](=O)[O-])CC1,-26.5
6,COc1ccc(CN(C(=O)CNC(=O)c2ccco2)C(C(=O)NC2CCCC2)c2ccco2)cc1 (stereo not drawn),-15.9
7,Brc1ccc(-c2csc(/N=C/N3CCOCC3)n2)cc1,-39.6
8,CCc1ccc(NC(=O)CSc2nnnn2-c2cccnc2)cc1,-15.4
9,Cc1ccc(NC(=O)CN(C)C(C)C(=O)Nc2ccc(S(=O)(=O)N3CCCC3)cc2)cc1 (stereo not drawn),-7.52
10,CN(C)/C=C(/C(=O)c1ccc(Cl)cc1)S(C)(=O)=O,17.3
11,CC(C)CC(CO)N1CCN(C(=O)c2cccc(Cl)c2)CCC1=O (stereo not drawn),7.35
12,COc1ccc(C(=O)C2CCCN(C(=O)c3cccnc3SC)C2)c(C)c1 (stereo not drawn),10.6
13,Cc1cccc(NC(=O)CN2C(=O)N/C(=C\c3ccc(N4CCOCC4)cc3)C2=O)c1,9.92
14,N#Cc1cc(N2CCCCC2)c([N+](=O)[O-])cc1C#N,10.2
15,Nc1ncc2c(n1)-c1cc(Cl)ccc1SC2,-32.2
16,c1ccc(CN2CCN(Cc3ccc4ccccc4c3)CC2)cc1,5.24
17,CNCCOc1ccccc1-c1ccccc1.O=C(O)C(=O)O,-5.68
18,O=[N+]([O-])c1ccccc1Oc1cnc2ccccc2n1,-9.02
19,CC(C)CCNC(=O)C(c1ccc(O)cc1)N(C(=O)C1COc2ccccc2O1)c1cccc(O)c1 (stereo not drawn),3.37
20,Cc1ccc(S(=O)(=O)N(Cc2ccccc2)c2ccccc2C(=O)N2CCCCC2)cc1,-28.6
21,O=C(Nc1ccccc1)c1nc2ccccc2s1,-9.08
22,COC(=O)Nc1ccc2c(c1)N(C(=O)CCN(C)C)c1ccccc1CC2.Cl,15

row,Structure (SMILES),"hERG current change (%, negative = inhibition) at 10uM [%]"
1,O=C(CN1C(=O)/C(=C/c2ccc(F)cc2)SC1=S)NC1C=CS(=O)(=O)C1 (stereo not drawn),42.7
2,COc1ccc(OC)c(NC(=O)C2CCCN(S(=O)(=O)c3cccc4nsnc34)C2)c1 (stereo not drawn),0.373
3,CN(c1ccccc1)S(=O)(=O)c1cccc(Cl)c1Cl,-0.0959
4,CC(Oc1ccccc1)C(=O)N=C1SC2CS(=O)(=O)CC2N1CCc1ccccc1 (stereo not drawn),-21.6
5,CC1CCCCN1C(=O)Cn1c(=O)n(-c2ccc(F)cc2)c(=O)c2sccc21 (stereo not drawn),-0.788
6,Cc1cccc(OC(=O)c2sc(Cl)nc2C)c1,-12.7
7,CCS(=O)(=O)NCC(c1cccnc1)N1CCN(c2ccccc2OC)CC1 (stereo not drawn),0.421
8,N=C1C(c2nc3ccccc3s2)=C(O)CN1C1CCC(O)CC1 (stereo not drawn),-4.86
9,Cc1cccc(NC2=NC(=S)N(c3cccc(C(=O)O)c3)C23CCCCC3)c1,17.2
10,Cc1cc(C)cc(-n2c(SCC(=O)NCc3ccco3)nc3ccccc3c2=O)c1,3.69
11,COc1ccc(OC)c(S(=O)(=O)Nc2ccccc2C)c1,11.9
12,CN(CC(=O)NC1CC(C)(C)NC(C)(C)C1)S(=O)(=O)c1ccc(Br)cc1,-2.22
13,Cc1ccc(Cc2cnc(NC(=O)/C(C#N)=C/c3ccc(-c4ccc([N+](=O)[O-])cc4)o3)s2)cc1,4.54
14,O=S(=O)(Cc1cc(Cl)nc(-c2cccnc2)n1)c1ccccc1,-14.4
15,COc1ccc(/C=C(\C#N)c2n[nH]c(Cn3cncn3)n2)cc1,8.43
16,COCCCn1c(SCC(=O)NC(C)(C)C)nnc1-c1cccs1,7.25
17,CCOC(=O)c1c(C)[nH]c(C)c1C(=O)COC(=O)C1CCCN1S(=O)(=O)c1ccccc1F (stereo not drawn),-2.63
18,CCN(CC)CCCC(C)N=C(c1ccccc1)c1c(O)n(C)c(=O)n(C)c1=O (stereo not drawn),5.76
19,CCN1CCN(c2c(Cl)cccc2NC(=O)c2cc3ccccc3o2)CC1,-23.4
20,O=C(COc1ccc(Cl)cc1Br)Nc1ccncc1,-5.88
21,O=C(NC(=S)N1CCN(c2ccc(F)cc2)CC1)c1cccs1,-35.1
22,Cc1[nH]n(-c2ccccc2)c(=O)c1C=NCc1ccncc1,-58.1

row,Structure (SMILES),"hERG current change (%, negative = inhibition) at 10uM [%]"
1,CSc1ncccc1C(=O)OCC(=O)N(C)C1CCS(=O)(=O)C1 (stereo not drawn),13.7
2,COC(=O)c1ccccc1NC(=O)CN(C)S(=O)(=O)c1ccc(OC)cc1,1.45
3,O=CN1N=C(c2ccccc2)CC1c1ccc(Cl)cc1 (stereo not drawn),-14.3
4,Cc1cc(C)nc(NS(=O)(=O)c2ccc(NC(=O)CSc3ncn[nH]3)cc2)n1,8.34
5,Cc1cc(C)n(CCC(=O)N/N=C/c2ccccc2O)n1,5.57
6,S=c1[nH]nc(CSc2nc3ccccc3s2)o1,12.1
7,CN1C(=O)NC(c2ccccc2[N+](=O)[O-])C2=C1CCCC2=O (stereo not drawn),10.1
8,COc1ccccc1OCCC(=O)OCC(=O)Nc1cc(S(=O)(=O)N2CCOCC2)ccc1Cl,-22.5
9,Brc1ccccc1/C=N/Nc1nc2ccccc2o1,6.15
10,O=C(NCCc1ccc(Cl)cc1)c1ccc2ccccc2n1,-10.4
11,CN(CC(=O)Nc1cccc(F)c1)C(=O)C1CC(=O)N(Cc2ccccc2)C1 (stereo not drawn),-1.85
12,CCOC(=O)c1cc(-c2cccc([N+](=O)[O-])c2)on1,16.3
13,COC(=O)c1ccc(CNC(=O)c2sccc2-c2ccccc2)cc1,2.77
14,COc1ccc(NC(=O)N2CCN(S(C)(=O)=O)CC2)cc1OC,-0.713
15,Cc1cc(=O)oc(C)c1C(=O)Nc1cccc2nonc12,1.53
16,O=C(/C=N/O)NCC1CCNCC1,23.1
17,O=C(C1CCN(S(=O)(=O)c2ccccc2)CC1)N1CCCCC1,5.85
18,CC1=C(C(=O)Nc2cccc(C)c2C)C(c2cccs2)NC(=S)N1 (stereo not drawn),-7.83
19,CN(CC(=O)Nc1ccc(Cl)c(C(F)(F)F)c1)C(=O)CCC(=O)c1ccccc1,-12.6
20,O=C(/C=C/c1ccc([N+](=O)[O-])cc1)Nc1cccc(C(=O)Nc2ccccc2C(=O)O)c1,24.2
21,COc1ccc(OC)c(NC(=O)C2CCCN(S(C)(=O)=O)C2)c1 (stereo not drawn),1.83
